Measured values reported in PubChem BioAssay AID624418 (National Center for Advancing Translational Sciences (NCATS), 2012).
Hit rate of the full screen: of about 410,000 compounds, about 530 (0.13%) were called active. The shares of active, inactive and inconclusive entries below differ from those in the screen. Calls follow the shape of the dose curve; as a rule, active = well fitted inhibition curve with a large enough effect; inconclusive = small, poorly fitted or top-dose-only effect, or another doubt; inactive = no such curve, though single readings can be large or run the other way. Potencies of inconclusive entries are doubtful fits and often do not repeat.

Assay: qHTS of GLP-1 Receptor Inverse Agonists: Cytotox Screen
Conditions: HEK293 cAMP-luciferase reporter cells, luminescence, 24 h; series mostly up to 38.3 µM
Outline: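 Quantitative HTS format, 1536 wells, 200 cells/uL seeded. Compounds: 23 nL, 24 h, 37 °C. Detection: luciferase reagent, luminescence at 12 min RT; decreased signal taken as cytotoxic.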
Potency is read from the fitted curve at half-maximal effect.

Compound | Potency
COc1cc(C(=O)Nc2cc(C)ccc2C)ccc1OCc1c(C)noc1C | inactive
O=C(Nc1ccc(Cl)cc1)Nc1ccc(N2CCCC2)c(S(=O)(=O)Nc2ccccc2Cl)c1 | inconclusive: 10 µM [inhibitor, partial curve]
COc1cc(/C=N/n2cnnc2)ccc1OCc1ccccc1 | inactive
CCOc1cccc2sc(N(CCN(CC)CC)C(=O)c3ccco3)nc12 | inconclusive: 8.91 µM [inhibitor, partial curve, poor fit]
Cc1ccc(-n2[nH]c(C)c(/C=N/N3C(=O)c4cccc5cccc(c45)C3=O)c2=O)cc1 | inconclusive: 31.6 µM [inhibitor, single point]
CCOC(=O)c1ccc(S(=O)(=O)N2CC(=O)Nc3ccccc32)cc1 | inactive
CC(C)Oc1ccc(S(=O)(=O)N2CCOCC2)cc1NC(=O)CSC(=S)N1CCCC1 | inactive
FC(F)(F)c1cnc(/C=C/Nc2ccccc2Cl)c(Cl)c1 | inactive
O=C(O)CN1C(=O)c2ccc(C(=O)c3ccccc3)cc2C1=O | inconclusive: 28.2 µM [inhibitor, single point]
CC(C)N(C(=O)CSc1nc2ccccc2n1Cc1ccc(F)cc1)C(C)C | inconclusive: 31.6 µM [inhibitor, single point]
Cc1ccc(NC(=O)C2CC(O)CN2C(=O)Oc2ccccc2)c(C)c1 (stereo unspecified) | inactive
CC1(C(=O)Nc2ccc3ccccc3c2)CCC(=O)N1C1CCN(Cc2ccccc2)CC1 (stereo unspecified) | inconclusive: 22.4 µM [inhibitor, single point]
COc1ccc(-n2ccnc(NCc3ccc(C)cc3)c2=O)cc1OC | inactive
O=C(N/N=C/c1c(O)ccc2ccccc12)c1ccc(Br)o1 | inactive
COc1ccc(/C=N/NC(=O)c2nc(Cl)c(Cl)c(N)c2Cl)cc1COc1ccccc1F | inconclusive: 5.01 µM [inhibitor, full curve]
COc1ccccc1NS(=O)(=O)c1cccc(NC(=O)Nc2ccc(Cl)cc2)c1 | inconclusive: 10 µM [inhibitor, single point]
CN(CCOc1ccc(Cl)cc1)C(=O)CNS(=O)(=O)c1ccc(N(C)C)c([N+](=O)[O-])c1 | inconclusive: 5.01 µM [inhibitor, partial curve]
Cc1cccc(NC(=O)c2cc([N+](=O)[O-])ccc2N2CCOCC2)c1C | inconclusive: 11.2 µM [inhibitor, partial curve, poor fit]
COc1ccccc1C(=O)Nc1ccnn1C1CCN(Cc2cc(C)c(C)cc2C)CC1 | inconclusive: 11.2 µM [inhibitor, single point]
Cc1cc(N2CCN(C)CC2)nc2ccc(NC(=O)c3ccc(Br)o3)cc12 | inconclusive: 11.2 µM [inhibitor, single point]
COc1ccc(C(CCNCc2ccc(N(C)C)cc2)c2ccccc2)cc1 (stereo unspecified) | inconclusive: 28.2 µM [inhibitor, single point]

Compound | Potency
COc1cccc(NC(=O)CN(C)C(=O)CSCc2nc3scc(-c4cccs4)c3c(=O)[nH]2)c1 | inconclusive: 12.6 µM [inhibitor, single point]
O=C1c2ccccc2C(=O)c2c1oc(C(F)(F)F)c2C(=O)c1ccccc1 | inactive
COc1cc(C(=O)N/N=C/C2CC=CCC2)cc(OC)c1OC (stereo unspecified) | inconclusive: 0.891 µM [inhibitor, full curve, poor fit]
CCCNC(=S)Nc1ccc(Oc2ccccc2)cc1 | inconclusive: 10 µM [inhibitor, partial curve]
CCc1ccc(/C=C2\SC(=S)N(CCCC(=O)N3CCN(C)CC3)C2=O)cc1 | inconclusive: 10 µM [inhibitor, partial curve, poor fit]
CC(=O)Nc1ccc(S(=O)(=O)Nc2nc3c(s2)CCCC3)cc1 | inactive
Cc1ccc(N=Nc2c(=O)[nH]n3c(C)cc(C)nc23)cc1 | inconclusive: 14.1 µM [inhibitor, single point]
CCC(C)[C@H](N)C(=O)N[C@H]1CCC2C3CC=C4C[C@@H](O)CC[C@]4(C)C3CC[C@@]21C (stereo partly specified) | inconclusive: 28.2 µM [inhibitor, single point]
COc1ccc(C)cc1S(=O)(=O)NC1CCCCC1C (stereo unspecified) | inactive
O=C(C1CCCN(c2ncnc3c2nc2n3CCCCC2)C1)N1CCN(c2ccc(Cl)cc2)CC1 (stereo unspecified) | inconclusive: 11.2 µM [inhibitor, partial curve]
COc1cc(C2c3cc4c(cc3C(O)C3COCC23)OCO4)cc(OC)c1OC (stereo unspecified) | inconclusive: 11.2 µM [inhibitor, single point]
O=C(CC1SC(=Nc2ccccc2)N(Cc2ccccn2)C1=O)Nc1cccc(Cl)c1 (stereo unspecified) | inconclusive: 11.2 µM [inhibitor, single point]
CC1=C(C)CS(=O)N(S(=O)(=O)c2ccc(Cl)cc2)C1 (stereo unspecified) | inconclusive: 12.6 µM [inhibitor, single point]
COC(=O)C[C@H]1c2cc(F)ccc2S(=O)(=O)N1Cc1ccccc1 | inconclusive: 10 µM [inhibitor, single point]
CCC(C)(C)C1CCc2[nH]nc(C(=O)N/N=C(\C)c3ccco3)c2C1 (stereo unspecified) | inconclusive: 28.2 µM [inhibitor, single point]
Cc1cc(C)n(-c2nc(NCCN(C)C)c3c4c(sc3n2)COC(C)(C)C4)n1 | inconclusive: 20 µM [inhibitor, single point]
CCOc1ccc(-n2cc(C(=O)NCc3ccco3)c3cc(OC)c(OC)cc3c2=O)cc1 | inconclusive: 22.4 µM [inhibitor, single point]
CC(=O)c1sc(-c2ccccc2)cc1N | inconclusive: 14.1 µM [inhibitor, single point]
O=C(N/N=C/c1ccc(Cl)c([N+](=O)[O-])c1)c1ccc2nc[nH]c2c1 | inconclusive: 28.2 µM [inhibitor, single point]
CCCCCCNC(=O)O[C@H]1Cn2c(=O)n(CCCCCC)c(=O)n2[C@@H]2CN(S(=O)(=O)c3ccc(C)cc3)C[C@]12O | inconclusive: 28.2 µM [inhibitor, single point]
